Molecules are shown by their SMILES. The list shows a part of the results. Many values rest on one well or one pass, so single values are uncertain.

Test systems include MZ2-MEL; MeWo; RPMI7951; RVH-421; SkMel28; SkMel2; SkMel30; UACC62; WM115; WM1716; WM1745; WM3526; WM3619; WM451Lu; SkMel5; UACC257.
Holding throughout (assay): cell count relative to DMSO control; melanoma cells; higher = more viable cells
Common to all, as to details: library dose: low library concentration; 72 h
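Also: cell number obtained by counting DAPI-stained nuclei in high-throughput microscope images with image analysis software, screen run in 1,536-well plates.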

For the molecule `Nc1ccn([C@@H]2O[C@H](CO)[C@@H](O)C2(F)F)c(=O)n1` [gemcitabine] + CCCS(=O)(=O)Nc1ccc(F)c(C(=O)c2c[nH]c3ncc(Cl)cc23)c1F [PLX4720] (first compound 0.0004 µM, partner dose 0.08 µM), the cell count with MZ2-MEL amounted to 85.1%; in the assay on MeWo it was 97.4%; with RPMI7951, 86.8%; in the assay with RVH-421, 94.7%; in the assay with SkMel28 it was 85.5%; in the assay with SkMel2 it was 93.3%. Moreover, the cell count in the assay with SkMel30 was determined as 93.1%; with UACC62, 71.7%; with WM115, 91.7%; with WM1716, 116%; with WM1745, 86.8%; in the assay on WM3526, 80%. For the same molecule, the values for the cell count in the assay on WM3619 and in the assay with WM451Lu were 78.6% and 91.8%, respectively.

As to `Nc1ncn([C@H]2C[C@H](O)[C@@H](CO)O2)c(=O)n1` [decitabine] + Cc1nc(Nc2ncc(C(=O)Nc3c(C)cccc3Cl)s2)cc(N2CCN(CCO)CC2)n1 [dasatanib] (first compound 0.1 µM, partner dose 0.004 µM), the cell count in the assay on MZ2-MEL is 92%; in the assay on MeWo, 85.4%; in the assay with RPMI7951 it was 71.7%; in the assay with RVH-421, 92%; in the assay on SkMel28 it was 52.3%; in the assay with SkMel2, 106%. Besides, the cell count stood at 123% in the assay with SkMel30; 72.9% in the assay with UACC62; 62.3% with WM115; 78.5% in the assay on WM1716; 62% in the assay on WM1745; 95.4% in the assay on WM3526. In addition, the results for the cell count with WM3619 and with WM451Lu were 91% and 100%, respectively.

As to `CC(=O)O[C@@]12CO[C@@H]1C[C@H](O)[C@@]1(C)C(=O)[C@H](O)C3=C(C)[C@@H](OC(=O)[C@H](O)[C@@H](NC(=O)OC(C)(C)C)c4ccccc4)C[C@@](O)([C@@H](OC(=O)c4ccccc4)[C@H]21)C3(C)C` [Docetaxel] + Clc1ccc(Nc2nnc(Cc3ccncc3)c3ccccc23)cc1 [vatalanib] (first compound 0.0001 µM, partner dose 2 µM), the cell count amounted to 50.1% in the assay on MZ2-MEL; 43.7% with MeWo; 36.4% in the assay on RPMI7951; 58.4% with RVH-421; 42.2% with SkMel28; 44.5% in the assay on SkMel2. For the same molecule, the cell count in the assay on SkMel30 came to 37.2%; in the assay on UACC62, 39.3%; with WM115 it was 72%; in the assay on WM1716, 50.8%; in the assay on WM1745 it was 58.4%; in the assay with WM3526 it was 44%. In addition, the cell count was 69.9% in the assay with WM3619 and 76.3% in the assay with WM451Lu.

As to `CO[C@H]1C[C@@H]2CC[C@@H](C)[C@@](O)(O2)C(=O)C(=O)N2CCCC[C@H]2C(=O)O[C@H]([C@H](C)C[C@@H]2CC[C@@H](OCCO)[C@H](OC)C2)CC(=O)[C@H](C)/C=C(\C)[C@@H](O)[C@@H](OC)C(=O)[C@H](C)C[C@H](C)/C=C/C=C/C=C/1C` [everolimus] + Cn1cc(/C=C2\C(=O)Nc3cccnc32)c2ccccc21 [GW441756] (first compound 0.02 µM, partner dose 0.4 µM), the cell count was found to be 78.9% in the assay on MZ2-MEL; 64.8% in the assay on MeWo; 78.2% in the assay on RPMI7951; 84.2% in the assay with RVH-421; 52% with SkMel28; 65% with SkMel30. Besides, the cell count stood at 75.9% in the assay with SkMel5; 54.3% with UACC257; 57.3% with UACC62; 73.4% with WM115; 66.3% with WM1716; 80.5% with WM1745. For the same molecule, the cell count with WM3526 turned out to be 68.4%; with WM3619 it was 79.6%; with WM451Lu, 70.9%.

As to `CO[C@H]1C[C@@H]2CC[C@@H](C)[C@@](O)(O2)C(=O)C(=O)N2CCCC[C@H]2C(=O)O[C@H]([C@H](C)C[C@@H]2CC[C@@H](OCCO)[C@H](OC)C2)CC(=O)[C@H](C)/C=C(\C)[C@@H](O)[C@@H](OC)C(=O)[C@H](C)C[C@H](C)/C=C/C=C/C=C/1C` [everolimus] + CC(C)(C)c1cnc(CSc2cnc(NC(=O)C3CCNCC3)s2)o1 [SNS-032] (first compound 0.02 µM, partner dose 0.01 µM), the cell count was 79.7% in the assay on MZ2-MEL; 67.8% in the assay with MeWo; 78% in the assay on RPMI7951; 80.3% with RVH-421; 66.5% with SkMel28; 62.2% in the assay on SkMel30. Moreover, the cell count came out at 95.9% in the assay with SkMel5; 56.8% with UACC257; 67.8% in the assay with UACC62; 69.1% in the assay with WM115; 83% in the assay with WM1716; 84.9% with WM1745. In addition, the cell count with WM3526 stood at 63.7%; in the assay with WM3619, 74.8%; with WM451Lu, 77.9%.

In the case of `CO[C@H]1C[C@@H]2CC[C@@H](C)[C@@](O)(O2)C(=O)C(=O)N2CCCC[C@H]2C(=O)O[C@H]([C@H](C)C[C@@H]2CC[C@@H](OCCO)[C@H](OC)C2)CC(=O)[C@H](C)/C=C(\C)[C@@H](O)[C@@H](OC)C(=O)[C@H](C)C[C@H](C)/C=C/C=C/C=C/1C` [everolimus] + OCc1c[nH]c2ccccc12 [Indole-3-carbinol] (first compound 0.02 µM, partner dose 0.8 µM), the cell count with MZ2-MEL was determined as 79.5%; in the assay with MeWo it was 69.7%; in the assay on RPMI7951, 70.8%; in the assay with RVH-421, 81.4%; with SkMel28, 61.3%; in the assay with SkMel30 it was 63.4%. In addition, the cell count in the assay with UACC62 was found to be 59.3%; in the assay with WM115 it was 73.8%; in the assay with WM1716, 67.7%; in the assay on WM1745 it was 86%; in the assay on WM3526, 62.2%; with WM3619 it was 53.3%. The molecule further came in with a cell count in the assay with WM451Lu of 88.9%.

As to `Nc1ncn([C@H]2C[C@H](O)[C@@H](CO)O2)c(=O)n1` [decitabine] + Cn1cncc1[C@@](N)(c1ccc(Cl)cc1)c1ccc2c(c1)c(-c1cccc(Cl)c1)cc(=O)n2C [tipifarnib] (first compound 0.1 µM, partner dose 0.01 µM), the cell count with MeWo was 106%; with RPMI7951, 75.1%; in the assay with RVH-421, 66%; in the assay with SkMel28, 69.3%; with SkMel2 it was 83.8%; with SkMel30 it was 126%. Also, the cell count in the assay on SkMel5 is 96.1%; with UACC257, 62.5%; with UACC62, 51.8%; with WM115 it was 66.9%; in the assay with WM1716 it was 64.8%; with WM1745, 90.2%. In addition, the cell count in the assay with WM3526 came to 88.8%; with WM3619 it was 89.9%; in the assay with WM451Lu, 84.6%.

For `CO[C@H]1C[C@@H]2CC[C@@H](C)[C@@](O)(O2)C(=O)C(=O)N2CCCC[C@H]2C(=O)O[C@H]([C@H](C)C[C@@H]2CC[C@@H](OCCO)[C@H](OC)C2)CC(=O)[C@H](C)/C=C(\C)[C@@H](O)[C@@H](OC)C(=O)[C@H](C)C[C@H](C)/C=C/C=C/C=C/1C` [everolimus] + O=C(O)c1ccc2c(c1)nc(Nc1cccc(Cl)c1)c1ccncc12 [CX4945] (first compound 0.02 µM, partner dose 0.4 µM), the cell count with MZ2-MEL worked out at 76.3%; in the assay on MeWo it was 69.3%; in the assay with RPMI7951, 67.6%; with RVH-421 it was 83.5%; in the assay with SkMel28 it was 63.7%; with SkMel30, 67%. In addition, the cell count is 63.9% with UACC62; 78% in the assay with WM115; 64% in the assay with WM1716; 98.1% with WM1745; 65.2% in the assay with WM3526; 75.4% in the assay on WM3619. The molecule also came in with a cell count in the assay on WM451Lu of 72.9%.

For `CO[C@H]1C[C@@H]2CC[C@@H](C)[C@@](O)(O2)C(=O)C(=O)N2CCCC[C@H]2C(=O)O[C@H]([C@H](C)C[C@@H]2CC[C@@H](OCCO)[C@H](OC)C2)CC(=O)[C@H](C)/C=C(\C)[C@@H](O)[C@@H](OC)C(=O)[C@H](C)C[C@H](C)/C=C/C=C/C=C/1C` [everolimus] + O=C(CCCCCCC(=O)Nc1ccccc1)NO [vorinostat] (first compound 0.02 µM, partner dose 0.08 µM), the cell count in the assay on MZ2-MEL came to 88.8%; in the assay on MeWo it was 72.4%; in the assay with RPMI7951, 66.8%; in the assay on RVH-421, 88.2%; in the assay on SkMel28 it was 57.7%; in the assay on SkMel30, 138%. Further, the cell count with SkMel5 was 89.4%; with UACC257, 53.6%; in the assay on UACC62, 72.8%; with WM115 it was 80.6%; with WM1716, 80.3%; in the assay on WM1745 it was 108%. Besides, the cell count amounted to 72.9% in the assay with WM3526, 88.2% with WM3619 and 75.6% in the assay with WM451Lu.

For the molecule `CO[C@H]1C[C@@H]2CC[C@@H](C)[C@@](O)(O2)C(=O)C(=O)N2CCCC[C@H]2C(=O)O[C@H]([C@H](C)C[C@@H]2CC[C@@H](OCCO)[C@H](OC)C2)CC(=O)[C@H](C)/C=C(\C)[C@@H](O)[C@@H](OC)C(=O)[C@H](C)C[C@H](C)/C=C/C=C/C=C/1C` [everolimus] + CN(NC(=O)CC(=O)NN(C)C(=S)c1ccccc1)C(=S)c1ccccc1 [STA4783] (first compound 0.02 µM, partner dose 0.006 µM), the cell count with MZ2-MEL worked out at 69.9%; with MeWo, 69.5%; with RPMI7951, 94.7%; in the assay on RVH-421, 88.1%; in the assay on SkMel28, 53.2%; in the assay with SkMel30, 64.1%. The cell count worked out at 89.2% in the assay on SkMel5; 83.5% in the assay with UACC257; 75.7% in the assay with UACC62; 75.3% in the assay with WM115; 65.3% in the assay on WM1716; 48.7% with WM1745. Moreover, the cell count with WM3526 worked out at 65.6%; in the assay with WM3619 it was 56.6%; with WM451Lu, 68.1%.

For the origin of these results see the supplement of paper PMC4604168 (melanoma cell lines).
